The supplement of paper PMC7826260
The other results are listed elsewhere or left out. The data describe in vitro nicking of single-stranded DNA by Rep domains at 3 µM enzyme and 37 °C for 1 h; the strands have 90 letters, of which the middle is given. Uncut reads are compared with the no-enzyme pool on a log2 scale; uncut sequences lie near 0, cut ones below; no hit call is given. Reads are scaled to the total; values above 0 arise when much of the pool is cut.

test system: T1, Rep nickase domain of faba bean necrotic yellows virus; assay: uncleaved DNA left, log2 of reads against the no-enzyme library (log2 ratio); higher = less cleavage (more negative = more Rep cleavage of the k-mer); sequences stand for … in CTCGTCCG…ACCGGAGA
T1 sequence (protein, residues 1-98, tag omitted): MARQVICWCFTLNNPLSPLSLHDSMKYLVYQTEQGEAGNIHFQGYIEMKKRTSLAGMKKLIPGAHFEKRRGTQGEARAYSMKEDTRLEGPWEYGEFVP
Method: (§1)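 A pool of 90-nt single-stranded DNAs with seven random bases just before the constant AC of the nick site (name = the seven bases) was cut by 3 µM recombinant His6-SUMO-tagged Rep nickase domain (300 nM DNA, 50 mM HEPES pH 8.0, 50 mM NaCl, 1 mM MnCl2, 1 h, 37 °C, three replicates). Uncut DNA was amplified and sequenced.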

Sequence	uncleaved DNA left (log2)
CCTTAGC	0.00225
CGACGCG	0.165
GATCTTC	0.107
CGCGCGA	-0.106
GTTCTTG	0.0552
AGAATCC	0.105
ACCGACT	0.234
TGTTGGA	-0.2
AGCGCCT	-0.0871
TGTCATC	0.213
AGTAGAA	0.149
GTCTACT	0.0496
AGGGTAT	0.0423
GACACCC	-0.0498
TTAACGG	0.0377
AGTCGTC	-0.00447
ACGAAAG	-0.0151
CGAATGG	-0.0686
GAAAGCC	-0.0235
GCTGTTC	-0.0289

Sequence	uncleaved DNA left (log2)
CCCGGGC	-0.00482
GCACATG	-0.14
CCGGTGC	0.043
GAGCTCA	-0.1
GAACGAT	0.0529
GCACGAC	-0.0622
ATACCAC	0.0477
GGAATTT	-0.065
TATTTTG	0.0136
CCGCAGT	-0.036
AGCATCT	0.0235
GCAAAGG	-0.0114
TATTAGG	-0.0599
GAGTGGA	0.0222
AGACATC	0.0704
CGAGCGG	0.0338
TTGAGAG	0.0354
GCGAGCG	-0.0142
GTCACTC	0.00669
ATCATAA	0.232

test system: T2, Rep nickase domain of maize striate mosaic virus; assay: as above
T2 sequence (protein, residues 1-117, tag omitted): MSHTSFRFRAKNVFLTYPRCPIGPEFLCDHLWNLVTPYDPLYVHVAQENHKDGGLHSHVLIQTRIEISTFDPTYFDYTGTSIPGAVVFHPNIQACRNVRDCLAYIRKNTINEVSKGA
Method: as §1

Sequence	uncleaved DNA left (log2)
CCTTAGC	-1.05
CGACGCG	-0.764
GATCTTC	0.848
CGCGCGA	-0.67
GTTCTTG	0.856
AGAATCC	0.6
ACCGACT	0.00315
TGTTGGA	-0.597
AGCGCCT	1.44
TGTCATC	0.983
AGTAGAA	-0.245
GTCTACT	1.64
AGGGTAT	1.85
GACACCC	0.651
TTAACGG	2.15
AGTCGTC	-0.472
ACGAAAG	-1.06
CGAATGG	0.476
GAAAGCC	-0.361
GCTGTTC	0.438

Sequence	uncleaved DNA left (log2)
CCCGGGC	1.01
GCACATG	-0.581
CCGGTGC	-0.486
GAGCTCA	0.657
GAACGAT	1.39
GCACGAC	-0.36
ATACCAC	-0.0799
GGAATTT	2.01
TATTTTG	-1.2
CCGCAGT	-0.812
AGCATCT	0.684
GCAAAGG	-0.0192
TATTAGG	1.38
GAGTGGA	0.556
AGACATC	1.82
CGAGCGG	1.03
TTGAGAG	-0.914
GCGAGCG	-0.666
GTCACTC	1.46
ATCATAA	-0.786

test system: T3, Rep nickase domain of porcine circovirus 2; assay: as above
T3 sequence (protein, residues 2-116, tag omitted): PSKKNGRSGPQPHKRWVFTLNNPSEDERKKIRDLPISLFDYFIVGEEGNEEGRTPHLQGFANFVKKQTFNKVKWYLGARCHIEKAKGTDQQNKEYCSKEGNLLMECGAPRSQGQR
Method: as §1

Sequence	uncleaved DNA left (log2)
CCTTAGC	0.0314
CGACGCG	0.254
GATCTTC	-0.0342
CGCGCGA	-0.0446
GTTCTTG	-0.022
AGAATCC	0.159
ACCGACT	0.148
TGTTGGA	-0.0605
AGCGCCT	-0.0461
TGTCATC	0.13
AGTAGAA	-0.356
GTCTACT	-2.57
AGGGTAT	0.167
GACACCC	-0.265
TTAACGG	0.0961
AGTCGTC	-0.0372
ACGAAAG	0.255
CGAATGG	0.0578
GAAAGCC	0.0895
GCTGTTC	-0.0605

Sequence	uncleaved DNA left (log2)
CCCGGGC	0.118
GCACATG	0.0277
CCGGTGC	0.0884
GAGCTCA	-0.642
GAACGAT	0.101
GCACGAC	0.0591
ATACCAC	-0.0877
GGAATTT	0.156
TATTTTG	-0.0875
CCGCAGT	0.0128
AGCATCT	-0.384
GCAAAGG	0.176
TATTAGG	0.047
GAGTGGA	-2.13
AGACATC	0.264
CGAGCGG	0.099
TTGAGAG	0.3
GCGAGCG	0.0225
GTCACTC	0.136
ATCATAA	0.224

test system: T4, Rep nickase domain of tomato yellow leaf curl virus; assay: as above
T4 sequence (protein, residues 1-136, tag omitted): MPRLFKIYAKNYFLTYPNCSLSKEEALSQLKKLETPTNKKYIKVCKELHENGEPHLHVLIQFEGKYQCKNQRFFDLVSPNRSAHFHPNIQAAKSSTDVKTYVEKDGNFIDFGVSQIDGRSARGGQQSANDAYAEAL
Method: as §1

Sequence	uncleaved DNA left (log2)
CCTTAGC	0.0204
CGACGCG	0.298
GATCTTC	0.071
CGCGCGA	-0.029
GTTCTTG	0.169
AGAATCC	0.125
ACCGACT	0.248
TGTTGGA	-0.0101
AGCGCCT	0.00996
TGTCATC	0.135
AGTAGAA	0.0642
GTCTACT	0.0732
AGGGTAT	-0.0934
GACACCC	-0.038
TTAACGG	-0.0545
AGTCGTC	-0.0173
ACGAAAG	0.04
CGAATGG	-0.0489
GAAAGCC	-0.00552
GCTGTTC	0.0184

Sequence	uncleaved DNA left (log2)
CCCGGGC	-0.0205
GCACATG	-0.0425
CCGGTGC	-0.02
GAGCTCA	0.0315
GAACGAT	-0.0457
GCACGAC	-0.0102
ATACCAC	-0.0177
GGAATTT	0.0583
TATTTTG	0.0482
CCGCAGT	-0.118
AGCATCT	-0.00394
GCAAAGG	-0.0159
TATTAGG	-0.254
GAGTGGA	0.0609
AGACATC	-0.00932
CGAGCGG	-0.0398
TTGAGAG	0.225
GCGAGCG	-0.00647
GTCACTC	0.107
ATCATAA	0.123

test system: T5, Rep nickase domain of wheat dwarf virus; assay: as above
T5 sequence (protein, residues 1-137, tag omitted): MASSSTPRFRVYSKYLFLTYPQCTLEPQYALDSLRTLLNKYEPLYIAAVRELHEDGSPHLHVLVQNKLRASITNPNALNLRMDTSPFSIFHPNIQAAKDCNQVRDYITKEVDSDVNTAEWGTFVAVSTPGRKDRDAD
Method: as §1

Sequence	uncleaved DNA left (log2)
CCTTAGC	0.0111
CGACGCG	-0.0622
GATCTTC	0.0962
CGCGCGA	-0.301
GTTCTTG	0.0243
AGAATCC	0.14
ACCGACT	0.122
TGTTGGA	-0.155
AGCGCCT	0.0453
TGTCATC	0.138
AGTAGAA	0.0741
GTCTACT	0.0147
AGGGTAT	0.0313
GACACCC	0.0299
TTAACGG	0.139
AGTCGTC	0.0772
ACGAAAG	0.017
CGAATGG	0.00665
GAAAGCC	-0.0373
GCTGTTC	0.0133

Sequence	uncleaved DNA left (log2)
CCCGGGC	0.0431
GCACATG	0.0105
CCGGTGC	-0.041
GAGCTCA	0.113
GAACGAT	0.0305
GCACGAC	-0.162
ATACCAC	0.0593
GGAATTT	0.0952
TATTTTG	0.0163
CCGCAGT	-0.14
AGCATCT	0.135
GCAAAGG	0.0429
TATTAGG	-0.107
GAGTGGA	0.0328
AGACATC	0.181
CGAGCGG	0.117
TTGAGAG	-0.0761
GCGAGCG	-0.0748
GTCACTC	0.144
ATCATAA	0.0925
